# Lines with a small IC50 respond at low doses; a limit (>, <) means that the fit lies beyond the doses tested. AUC is the area under the same curve over the 256-fold range up to the top dose, as a fraction; it is 1 without any effect and falls as sensitivity rises. Any top dose called inferred was calculated from the reported fits. For part of these data: Where an entry number is given, a second screen of the drug exists; the two often differ.
# How the values were obtained:
# Experiment in all cases: Viability of human cancer cell lines after 72 h of drug (GDSC screen)
# BMN-673 = compound: Cn1ncnc1[C@H]1c2n[nH]c(=O)c3cc(F)cc(c23)N[C@@H]1c1ccc(F)cc1 [BMN-673]; details: top dose 10 µM; top dose inferred
# Procedure: (§1)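 Human cancer cell lines in 384-well plates, medium with 10% serum, drug for 72 h over a 256-fold dose range (nine 2-fold or five 4-fold steps up to the top dose). Adherent lines were fixed and stained with the nucleic acid dye Syto60, suspension lines read with resazurin; signal relative to control wells, capped at 0 and 100%. One two-parameter sigmoid per drug and line, fitted in a mixed model over all curves with the slope shared within a line.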
# AZD6482 = compound: Cc1cc([C@@H](C)Nc2ccccc2C(=O)O)c2nc(N3CCOCC3)cc(=O)n2c1 [AZD6482]
# Procedure: as §1
# XMD11-85h = compound: COc1cc(C(=O)NC2CCN(C)CC2)ccc1Nc1ncc2c(n1)N(C1CCCC1)CCC(=O)N2C(C)C [XMD11-85h]; details: top dose 10 µM; top dose inferred
# Procedure: as §1
# MLN4924 = compound: NS(=O)(=O)OC[C@@H]1C[C@@H](n2ccc3c(N[C@H]4CCc5ccccc54)ncnc32)C[C@@H]1O [MLN4924]; details: top dose 1 µM; top dose inferred
# Procedure: as §1
# [1] = top dose 5 µM, screen: GDSC drug entry 1066, top dose inferred
# [2] = top dose 5.12 µM, screen: GDSC drug entry 156
Cell Line,AUC (BMN-673),IC50 (BMN-673),AUC (AZD6482; [1]),IC50 (AZD6482; [1]),AUC (AZD6482; [2]),IC50 (AZD6482; [2]),AUC (XMD11-85h),IC50 (XMD11-85h),AUC (MLN4924),IC50 (MLN4924)
"NCI-H2110 (non-small cell lung carcinoma, adherent)",0.747,3.26 µM,0.947,> 5 µM,0.886,> 5.12 µM,0.961,> 10 µM,0.734,0.296 µM
"NCI-H2141 (small cell lung carcinoma, suspension)",0.99,> 10 µM,0.984,> 5 µM,0.958,> 5.12 µM,0.99,> 10 µM,0.99,> 1 µM
"NCI-H2291 (lung adenocarcinoma, adherent)",0.821,8.95 µM,0.683,1.24 µM,0.984,> 5.12 µM,0.982,> 10 µM,0.858,> 1 µM
"NCI-H2347 (lung adenocarcinoma, adherent)",0.88,> 10 µM,0.828,4.01 µM,0.897,> 5.12 µM,0.918,> 10 µM,0.811,0.678 µM
"NCI-SNU-5 (stomach, suspension)",0.797,4.81 µM,0.786,2.19 µM,0.979,> 5.12 µM,0.987,> 10 µM,0.943,> 1 µM
"NCI-SNU-16 (stomach, suspension)",0.978,> 10 µM,0.98,> 5 µM,0.991,> 5.12 µM,0.932,> 10 µM,0.935,> 1 µM
"NMC-G1 (glioma, adherent)",0.631,1.57 µM,0.899,> 5 µM,0.878,> 5.12 µM,0.96,> 10 µM,0.867,> 1 µM
"NTERA-2 cl.D1 (testis, adherent)",0.094,< 0.0391 µM,0.812,2.64 µM,0.749,1.65 µM,0.896,> 10 µM,0.894,> 1 µM
"OCI-AML5 (acute myeloid leukaemia, suspension)",0.91,> 10 µM,0.94,> 5 µM,0.898,> 5.12 µM,0.988,> 10 µM,0.807,0.46 µM
"OCI-LY-19 (B-cell lymphoma, suspension)",0.711,2.32 µM,0.927,> 5 µM,0.869,4.12 µM,0.973,> 10 µM,0.973,> 1 µM
"OCUB-M (breast, adherent)",0.884,8.29 µM,0.641,0.721 µM,0.735,1.34 µM,0.985,> 10 µM,0.729,0.251 µM
"ONS-76 (medulloblastoma, adherent)",0.714,2.65 µM,0.973,> 5 µM,0.92,> 5.12 µM,0.964,> 10 µM,0.698,0.237 µM
"OS-RC-2 (kidney, adherent)",0.866,> 10 µM,0.866,> 5 µM,0.579,0.579 µM,0.927,> 10 µM,0.726,0.374 µM
"OV-17R (ovary, adherent)",0.784,6.18 µM,0.941,> 5 µM,,,0.939,> 10 µM,0.974,> 1 µM
"OVCA420 (ovary, adherent)",0.946,> 10 µM,0.933,> 5 µM,,,0.899,> 10 µM,0.95,> 1 µM
"OVCAR-3 (ovary, adherent)",0.888,> 10 µM,0.777,2.23 µM,0.57,0.506 µM,0.966,> 10 µM,0.852,0.903 µM
"OVCAR-4 (ovary, adherent)",0.813,9.18 µM,0.836,> 5 µM,0.833,> 5.12 µM,0.952,> 10 µM,0.913,> 1 µM
"OVISE (ovary, adherent)",0.884,> 10 µM,0.898,> 5 µM,0.917,> 5.12 µM,0.874,> 10 µM,0.926,> 1 µM
"OVK-18 (ovary, adherent)",0.864,> 10 µM,0.832,3.69 µM,,,0.963,> 10 µM,0.881,> 1 µM
"PC-14 (lung adenocarcinoma, adherent)",0.744,2.85 µM,0.972,> 5 µM,0.986,> 5.12 µM,0.948,> 10 µM,0.938,> 1 µM
"PL-21 (acute myeloid leukaemia, suspension)",0.98,> 10 µM,,,0.821,3.63 µM,0.919,> 10 µM,0.882,> 1 µM
"PWR-1E (prostate, adherent)",0.705,2.36 µM,0.905,> 5 µM,,,0.986,> 10 µM,0.688,0.21 µM
"RC-K8 (B-cell lymphoma, suspension)",0.993,> 10 µM,0.991,> 5 µM,0.993,> 5.12 µM,0.992,> 10 µM,0.977,> 1 µM
"RERF-LC-MS (lung adenocarcinoma, adherent)",0.842,7.3 µM,0.787,2.23 µM,0.987,> 5.12 µM,0.954,> 10 µM,0.851,0.797 µM
"RERF-LC-Sq1 (lung squamous cell carcinoma, adherent)",0.929,> 10 µM,0.968,> 5 µM,0.979,> 5.12 µM,0.909,> 10 µM,0.798,0.761 µM
